Where a chain is given by its changes, count along the chain named. The list shows a part of the results.
T1: RBFOX1 RRM RbFoxmut (Fox-RRM*) (Homo sapiens, UniProt Q9NWB1 109-208, R118D;E147R;N151S;E152T)
T1 sequence: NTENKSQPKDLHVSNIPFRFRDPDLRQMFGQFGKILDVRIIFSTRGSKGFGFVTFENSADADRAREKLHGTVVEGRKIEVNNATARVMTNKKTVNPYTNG

B1: AAGACGG (DNA:RNA)
RNA: GGGAGACCGGAAUUCAGAUUGUCCAAGACGGUUAAAUCCCGUCGUAGCCACCA
DNA 1: CAATCTGAATTCCGGTCTCCC
DNA 2: TGGTGGCTACGACGGGATT
B2: AAUCAGA (DNA:RNA)
RNA: B1 RNA with G27U, A28C, C29A, G31A
DNA 1: CAATCTGAATTCCGGTCTCCC
DNA 2: TGGTGGCTACGACGGGATT
B3: AGUCGCC (DNA:RNA)
RNA: B1 RNA with A26G, G27U, A28C, C29G, G30C, G31C
DNA 1: CAATCTGAATTCCGGTCTCCC
DNA 2: TGGTGGCTACGACGGGATT
B4: UCCGACU (DNA:RNA)
RNA: GGGAGACCGGAAUUCAGAUUGUCCUCCGACUUUAAAUCCCGUCGUAGCCACCA
DNA 1: CAATCTGAATTCCGGTCTCCC
DNA 2: TGGTGGCTACGACGGGATT
B5: CGACUCC (DNA:RNA)
RNA: B4 RNA with U25C, C26G, C27A, G28C, A29U, U31C
DNA 1: CAATCTGAATTCCGGTCTCCC
DNA 2: TGGTGGCTACGACGGGATT
B6: UGUUCCA (DNA:RNA)
RNA: B4 RNA with C26G, C27U, G28U, A29C, U31A
DNA 1: CAATCTGAATTCCGGTCTCCC
DNA 2: TGGTGGCTACGACGGGATT
B7: CAGGGUA (DNA:RNA)
RNA: B1 RNA with A25C, A28G, C29G, G30U, G31A
DNA 1: CAATCTGAATTCCGGTCTCCC
DNA 2: TGGTGGCTACGACGGGATT
B8: AGCCGCC (DNA:RNA)
RNA: B4 RNA with U25A, C26G, G28C, A29G, U31C
DNA 1: CAATCTGAATTCCGGTCTCCC
DNA 2: TGGTGGCTACGACGGGATT
B9: CAAAUAA (DNA:RNA)
RNA: B1 RNA with A25C, G27A, C29U, G30A, G31A
DNA 1: CAATCTGAATTCCGGTCTCCC
DNA 2: TGGTGGCTACGACGGGATT
B10: GACCCUA (DNA:RNA)
RNA: B1 RNA with A25G, G27C, A28C, G30U, G31A
DNA 1: CAATCTGAATTCCGGTCTCCC
DNA 2: TGGTGGCTACGACGGGATT
B11: GGAUAUC (DNA:RNA)
RNA: B4 RNA with U25G, C26G, C27A, G28U, C30U, U31C
DNA 1: CAATCTGAATTCCGGTCTCCC
DNA 2: TGGTGGCTACGACGGGATT
B12: GCGACCU (DNA:RNA)
RNA: B1 RNA with A25G, A26C, G30C, G31U
DNA 1: CAATCTGAATTCCGGTCTCCC
DNA 2: TGGTGGCTACGACGGGATT
B13: AUCUAUC (DNA:RNA)
RNA: B4 RNA with U25A, C26U, G28U, C30U, U31C
DNA 1: CAATCTGAATTCCGGTCTCCC
DNA 2: TGGTGGCTACGACGGGATT
B14: UCGCCCU (DNA:RNA)
RNA: B4 RNA with C27G, G28C, A29C
DNA 1: CAATCTGAATTCCGGTCTCCC
DNA 2: TGGTGGCTACGACGGGATT
B15: CAGAUUU (DNA:RNA)
RNA: B1 RNA with A25C, C29U, G30U, G31U
DNA 1: CAATCTGAATTCCGGTCTCCC
DNA 2: TGGTGGCTACGACGGGATT
B16: UUGGAAA (DNA:RNA)
RNA: B4 RNA with C26U, C27G, C30A, U31A
DNA 1: CAATCTGAATTCCGGTCTCCC
DNA 2: TGGTGGCTACGACGGGATT
B17: GCAUAGU (DNA:RNA)
RNA: B4 RNA with U25G, C27A, G28U, C30G
DNA 1: CAATCTGAATTCCGGTCTCCC
DNA 2: TGGTGGCTACGACGGGATT
B18: AACAGGA (DNA:RNA)
RNA: B1 RNA with G27C, C29G, G31A
DNA 1: CAATCTGAATTCCGGTCTCCC
DNA 2: TGGTGGCTACGACGGGATT
B19: CUUGUCU (DNA:RNA)
RNA: B4 RNA with U25C, C26U, C27U, A29U
DNA 1: CAATCTGAATTCCGGTCTCCC
DNA 2: TGGTGGCTACGACGGGATT
B20: CGGACAG (DNA:RNA)
RNA: B1 RNA with A25C, A26G, G30A
DNA 1: CAATCTGAATTCCGGTCTCCC
DNA 2: TGGTGGCTACGACGGGATT
B21: CGAUCUC (DNA:RNA)
RNA: B1 RNA with A25C, A26G, G27A, A28U, G30U, G31C
DNA 1: CAATCTGAATTCCGGTCTCCC
DNA 2: TGGTGGCTACGACGGGATT
B22: CCUCGAU (DNA:RNA)
RNA: B4 RNA with U25C, C27U, G28C, A29G, C30A
DNA 1: CAATCTGAATTCCGGTCTCCC
DNA 2: TGGTGGCTACGACGGGATT
B23: AACGUGA (DNA:RNA)
RNA: B1 RNA with G27C, A28G, C29U, G31A
DNA 1: CAATCTGAATTCCGGTCTCCC
DNA 2: TGGTGGCTACGACGGGATT
B24: CGUACGA (DNA:RNA)
RNA: B1 RNA with A25C, A26G, G27U, G31A
DNA 1: CAATCTGAATTCCGGTCTCCC
DNA 2: TGGTGGCTACGACGGGATT
B25: CGGGUGU (DNA:RNA)
RNA: B1 RNA with A25C, A26G, A28G, C29U, G31U
DNA 1: CAATCTGAATTCCGGTCTCCC
DNA 2: TGGTGGCTACGACGGGATT
B26: CGGGGGA (DNA:RNA)
RNA: B1 RNA with A25C, A26G, A28G, C29G, G31A
DNA 1: CAATCTGAATTCCGGTCTCCC
DNA 2: TGGTGGCTACGACGGGATT
B27: AAUCUGU (DNA:RNA)
RNA: B1 RNA with G27U, A28C, C29U, G31U
DNA 1: CAATCTGAATTCCGGTCTCCC
DNA 2: TGGTGGCTACGACGGGATT
B28: CCCUCAG (DNA:RNA)
RNA: B1 RNA with A25C, A26C, G27C, A28U, G30A
DNA 1: CAATCTGAATTCCGGTCTCCC
DNA 2: TGGTGGCTACGACGGGATT
B29: GGUUCAU (DNA:RNA)
RNA: B1 RNA with A25G, A26G, G27U, A28U, G30A, G31U
DNA 1: CAATCTGAATTCCGGTCTCCC
DNA 2: TGGTGGCTACGACGGGATT
B30: GUGUCUG (DNA:RNA)
RNA: B1 RNA with A25G, A26U, A28U, G30U
DNA 1: CAATCTGAATTCCGGTCTCCC
DNA 2: TGGTGGCTACGACGGGATT
B31: UAACACU (DNA:RNA)
RNA: B4 RNA with C26A, C27A, G28C
DNA 1: CAATCTGAATTCCGGTCTCCC
DNA 2: TGGTGGCTACGACGGGATT

target: T1, RBFOX1 RRM RbFoxmut (Fox-RRM*); assay: EMSA; HiTS-Eq, 1 nM pool, 10 min; buffer printed only for the single-RNA assays: 10 mM Tris pH 7.5, 150 mM NaCl, 3.4 mM EDTA, 0.001% NP-40, 30 C; conditions: tags: His6 N-terminal (pET28a); label: 5' 32P
Procedure, shortened: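 Relative association constants, normalised to the cognate motif, were derived by comparing read counts of each RNA species with those of the control reaction. The RNA sequenced was the free fraction, separated by 8% native PAGE after a 10 min equilibration in 50 µL of 1 nM 5′-radiolabelled RNA (7 randomized nucleotides) with increasing concentrations of purified wild-type or mutant RbFox RRM.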

**Q.** With B1 as the binder, how does the binding signal read?
**A.** Its binding signal is 0.081 KA relative to UGCAUGU.

**Q.** Which binding signal does the source give for B2 here?
**A.** The binding signal was 0.0398 KA relative to UGCAUGU.

**Q.** With B3 as the binder, how does the binding signal read?
**A.** Its binding signal is 0.0636 KA relative to UGCAUGU.

**Q.** For B4, which binding signal is on record?
**A.** The binding signal was 0.0598 KA relative to UGCAUGU.

**Q.** How did the binding signal turn out when B5 was run?
**A.** Its binding signal is 0.0497 KA relative to UGCAUGU.

**Q.** How did the binding signal turn out when B6 was run?
**A.** The binding signal was 0.123 KA relative to UGCAUGU.

**Q.** Which binding signal does the source give for B7 here?
**A.** Its binding signal is 0.151 KA relative to UGCAUGU.

**Q.** B8 was tested. Which binding signal did it give?
**A.** The binding signal was 0.0809 KA relative to UGCAUGU.

**Q.** With B9 as the binder, how does the binding signal read?
**A.** The binding signal was 0.121 KA relative to UGCAUGU.

**Q.** B10 was tested. Which binding signal did it give?
**A.** Its binding signal is 0.0941 KA relative to UGCAUGU.

**Q.** Which binding signal does the source give for B11 here?
**A.** The binding signal was 0.146 KA relative to UGCAUGU.

**Q.** With B12 as the binder, how does the binding signal read?
**A.** The binding signal was 0.0505 KA relative to UGCAUGU.

**Q.** With B13 as the binder, how does the binding signal read?
**A.** Its binding signal is 0.13 KA relative to UGCAUGU.

**Q.** Which binding signal does the source give for B14 here?
**A.** The binding signal was 0.0819 KA relative to UGCAUGU.

**Q.** Which binding signal does the source give for B15 here?
**A.** Its binding signal is 0.101 KA relative to UGCAUGU.

**Q.** Which binding signal does the source give for B16 here?
**A.** Its binding signal is 0.0971 KA relative to UGCAUGU.

**Q.** For B17, which binding signal is on record?
**A.** The binding signal was 0.192 KA relative to UGCAUGU.

**Q.** B18 was tested. Which binding signal did it give?
**A.** The binding signal was 0.0817 KA relative to UGCAUGU.

**Q.** Which binding signal does the source give for B19 here?
**A.** The binding signal was 0.0774 KA relative to UGCAUGU.

**Q.** B20 was tested. Which binding signal did it give?
**A.** The binding signal was 0.0568 KA relative to UGCAUGU.

**Q.** With B21 as the binder, how does the binding signal read?
**A.** The binding signal was 0.0528 KA relative to UGCAUGU.

**Q.** B22 was tested. Which binding signal did it give?
**A.** The binding signal was 0.0769 KA relative to UGCAUGU.

**Q.** For B23, which binding signal is on record?
**A.** The binding signal was 0.0925 KA relative to UGCAUGU.

**Q.** B24 was tested. Which binding signal did it give?
**A.** Its binding signal is 0.0683 KA relative to UGCAUGU.

**Q.** Which binding signal does the source give for B25 here?
**A.** Its binding signal is 0.159 KA relative to UGCAUGU.

**Q.** How did the binding signal turn out when B26 was run?
**A.** The binding signal was 0.0841 KA relative to UGCAUGU.

**Q.** How did the binding signal turn out when B27 was run?
**A.** Its binding signal is 0.0567 KA relative to UGCAUGU.

**Q.** Which binding signal does the source give for B28 here?
**A.** The binding signal was 0.134 KA relative to UGCAUGU.

**Q.** With B29 as the binder, how does the binding signal read?
**A.** The binding signal was 0.0987 KA relative to UGCAUGU.

**Q.** For B30, which binding signal is on record?
**A.** Its binding signal is 0.29 KA relative to UGCAUGU.

**Q.** How did the binding signal turn out when B31 was run?
**A.** The binding signal was 0.0542 KA relative to UGCAUGU.

— paper PMC9911399, “Two distinct binding modes provide the RNA-binding protein RbFox with extraordinary sequence specificity”
